From a collection of fitness landscapes (doi:10.1038/s41467-024-54723-y) come the findings set out here.

Over roughly 18,000 sequences, “TetR repression strength (sort-seq, GFP reporter)” has its median near 0.23; the highest 2% begin near 0.68. Some of the results follow.

Sequence of UniProt P04483 (P04483 whole entry): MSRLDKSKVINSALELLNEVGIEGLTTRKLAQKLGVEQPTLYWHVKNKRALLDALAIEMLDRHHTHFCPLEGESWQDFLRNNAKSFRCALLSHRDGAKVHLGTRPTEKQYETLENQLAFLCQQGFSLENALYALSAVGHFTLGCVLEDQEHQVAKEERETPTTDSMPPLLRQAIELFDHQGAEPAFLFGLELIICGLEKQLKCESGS

This experiment has as its target TetR (class B, Tn10) (UniProt P04483). Put plainly: TetR repression strength (sort-seq, GFP reporter) (relative to tetO2 = 1); higher = stronger repression. The note with it: E. coli. The method, boiled down:
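Repression strength is the top bin index plus one minus the read-weighted mean bin, relative to the unaltered operator's value. A low-copy library in E. coli SIG10-MAX randomized eight operator positions between a constitutive promoter and sfGFP, with TetR expressed constitutively; cells grew 5 h at 37 °C in LB with 50 µg/mL chloramphenicol and 10^6 were FACS-sorted into 13 bins that were each Illumina-sequenced. Three independent transformations were averaged, keeping only members with ≥30 reads in all replicates and CV ≤0.5.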
TCCCGGTCAGTGGTTGAGA gave a TetR repression strength of 0.345.
As to TCCCGCTTAGTTCATGAGA, the TetR repression strength amounted to 0.217.
The result for TCCCAAACAGTGACGGAGA reads 0.237; that for TCCCGGTCAGTGAGGGAGA, 0.284; that for TCCCGTGTAGTAGGTGAGA, 0.25.
The result for TCCCAATGAGTGACCGAGA reads 0.311; that for TCCCAGACAGTACGCGAGA, 0.168; that for TCCCGAGAAGTGAAGGAGA, 0.234.
For the sequence TCCCATCTAGTCGTCGAGA, the TetR repression strength came to 0.577.
With TCCCCAAAAGTTGCTGAGA the figure was 0.324; with TCCCGCATAGTGAAGGAGA, 0.143; with TCCCAGGGAGTGAGGGAGA, 0.272.
With TCCCATTGAGTTTGCGAGA the figure was 0.335.
With TCCCGTGGAGTAATAGAGA the figure was 0.0972; with TCCCAAGGAGTAGGAGAGA, 0.119; with TCCCAGGGAGTCAGGGAGA, 0.182.
The sequence TCCCAGAGAGTCATTGAGA had a TetR repression strength of 0.183.
With TCCCACTAAGTAGAGGAGA the figure was 0.413.
For the sequence TCCCCTCAAGTTGGCGAGA, the TetR repression strength is 0.113.
With TCCCACAGAGTTTGGGAGA the figure was 0.203.
The result for TCCCGTGAAGTGCTTGAGA reads 0.311; that for TCCCACGCAGTAGGGGAGA, 0.689.
The result for TCCCTGGCAGTTCCGGAGA reads 0.163; that for TCCCGCATAGTTGGTGAGA, 0.0682; that for TCCCTCGTAGTTACCGAGA, 0.244.
In turn, TCCCTGGCAGTGCAGGAGA showed a TetR repression strength of 0.132.
The result for TCCCAAGAAGTACTCGAGA reads 0.104; that for TCCCTGGGAGTCTAGGAGA, 0.404; that for TCCCTGCGAGTAGGGGAGA, 0.127.
The result for TCCCATATAGTTACCGAGA reads 0.366; that for TCCCATATAGTGGCCGAGA, 0.28; that for TCCCGGATAGTCGAGGAGA, 0.409.
The result for TCCCGGTAAGTACTTGAGA reads 0.0622; that for TCCCTAGTAGTCGGAGAGA, 0.318.
Regarding TCCCCTTAAGTGCTTGAGA, the TetR repression strength is 0.
With TCCCATTGAGTCCTCGAGA the figure was 0.577; with TCCCGCGGAGTCAAGGAGA, 0.212.
In the case of TCCCGTCAAGTTATGGAGA, the TetR repression strength came out at 0.352.
As for TCCCGATGAGTCGTGGAGA, the TetR repression strength turned out to be 0.506.
With TCCCAGCGAGTACGTGAGA the figure was 0.134; with TCCCAACTAGTTTTTGAGA, 0.148; with TCCCTGACAGTGAGTGAGA, 0.263.
In turn, TCCCTAGTAGTGGCAGAGA displayed a TetR repression strength of 0.311.
As to TCCCGTCGAGTGTACGAGA, the TetR repression strength amounted to 0.123.
The result for TCCCGCGAAGTCGAGGAGA reads 0.258; that for TCCCTCGTAGTGGTTGAGA, 0.24.
Regarding TCCCGATGAGTTAGCGAGA, the TetR repression strength came out at 0.201.
TCCCTTCTAGTACCCGAGA came in with a TetR repression strength of 0.415.
The result for TCCCTGTAAGTTTTAGAGA reads 0.207.
The result for TCCCGTGTAGTCGATGAGA reads 0.201; that for TCCCCCCTAGTGGGTGAGA, 0.211.
With TCCCGGGCAGTCCGCGAGA the figure was 0.163; with TCCCACAAAGTAGAAGAGA, 0.235; with TCCCCTTAAGTGTTTGAGA, 0.366.
TCCCGGGTAGTAGCCGAGA showed a TetR repression strength of 0.277.
The result for TCCCGTGAAGTCTGTGAGA reads 0.159.
With TCCCCACGAGTGAGGGAGA the figure was 0.217.
The result for TCCCAATTAGTGTCTGAGA reads 0.216; that for TCCCTCGAAGTGTAGGAGA, 0.19.
As to TCCCATCGAGTGGGCGAGA, the TetR repression strength was 0.207.
With TCCCTGAGAGTAGCGGAGA the figure was 0.0808; with TCCCGCCGAGTCGGAGAGA, 0.0232; with TCCCGACAAGTTCATGAGA, 0.518.
The result for TCCCGAGGAGTACGCGAGA reads 0.0703; that for TCCCCGTAAGTACATGAGA, 0.181.
With TCCCACCAAGTTGGTGAGA the figure was 0.153; with TCCCCGTCAGTTGCCGAGA, 0.233; with TCCCTATTAGTACTCGAGA, 0.319.
Turning to TCCCTGCTAGTCGGGGAGA, the TetR repression strength is 0.178.
The result for TCCCTGCCAGTACAGGAGA reads 0.104.
The result for TCCCTGAAAGTATTCGAGA reads 0.102.
The result for TCCCTTTGAGTAATTGAGA reads 0.111; that for TCCCGCCAAGTGGCGGAGA, 0.272; that for TCCCTGGGAGTGAGTGAGA, 0.17.
In turn, TCCCTGTCAGTTTCGGAGA came in with a TetR repression strength of 0.329.
TCCCGTGAAGTCCGGGAGA: the TetR repression strength was found to be 0.138.
TCCCGACCAGTAGTGGAGA gave a TetR repression strength of 0.368.
The result for TCCCATAGAGTCTTGGAGA reads 0.21; that for TCCCTGCGAGTTGGAGAGA, 0.0995.
For the sequence TCCCATTGAGTATTTGAGA, the TetR repression strength was found to be 0.161.
With TCCCTGCTAGTCGGTGAGA the figure was 0.228.
With TCCCATGTAGTGTTAGAGA the figure was 0.217.
With TCCCGTCCAGTGCATGAGA the figure was 0.357; with TCCCGTTAAGTGGAAGAGA, 0.265.
The sequence TCCCCTTGAGTAAGCGAGA displayed a TetR repression strength of 0.299.
Sequence TCCCTCCGAGTAGGCGAGA showed a TetR repression strength of 0.745.
The result for TCCCAAATAGTGGGGGAGA reads 1.1.
With TCCCGCAGAGTGGTAGAGA the figure was 0.158; with TCCCGACAAGTTTAAGAGA, 0.349.
The result for TCCCCGTTAGTTCCGGAGA reads 0.143; that for TCCCCTAGAGTCTGAGAGA, 0.122.
On to TCCCCGGTAGTGTCAGAGA, for which the TetR repression strength was found to be 0.18.
The result for TCCCAACGAGTACGCGAGA reads 0.513.
The result for TCCCGCTCAGTGCCTGAGA reads 0.348; that for TCCCCGGGAGTCGACGAGA, 0.315.
In the case of TCCCTTCGAGTGTGGGAGA, the TetR repression strength was 0.213.
Sequence TCCCGATGAGTGCACGAGA showed a TetR repression strength of 0.219.
The sequence TCCCATCGAGTAGCGGAGA showed a TetR repression strength of 0.237.
As to TCCCGACAAGTGATAGAGA, the TetR repression strength was 0.642.
The result for TCCCCCTTAGTGATGGAGA reads 0.114; that for TCCCGTGGAGTGTAGGAGA, 0.217; that for TCCCGATCAGTGATAGAGA, 0.778.
